Holding throughout (assay): uncleaved DNA left, log2 of reads against the no-enzyme library (log2 ratio); higher = less cleavage (more negative = more Rep cleavage of the k-mer); sequences stand for … in CTCGTCCG…ACCGGAGA
For test [1], the system named is T1, Rep nickase domain of Muscovy duck circovirus.
T1 sequence (residues 1-111, tag not shown): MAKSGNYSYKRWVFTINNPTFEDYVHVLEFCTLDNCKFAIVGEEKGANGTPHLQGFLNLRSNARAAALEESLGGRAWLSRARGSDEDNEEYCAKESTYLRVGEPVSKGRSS
The procedure: (§1)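 A pool of 90-nt single-stranded DNAs with seven random bases just before the constant AC of the nick site (name = the seven bases) was cut by 3 µM recombinant His6-SUMO-tagged Rep nickase domain (300 nM DNA, 50 mM HEPES pH 8.0, 50 mM NaCl, 1 mM MnCl2, 1 h, 37 °C, three replicates). Uncut DNA was amplified and sequenced.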

Test [2] relates to T2, Rep nickase domain of banana bunchy top virus.
T2 sequence (residues 1-94, tag not shown): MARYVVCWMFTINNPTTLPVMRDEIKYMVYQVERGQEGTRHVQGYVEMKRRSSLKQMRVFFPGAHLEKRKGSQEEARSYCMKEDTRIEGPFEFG
The procedure:
as §1

For test [3], the system named is T3, Rep nickase domain of cabbage leaf curl virus.
T3 sequence (residues 1-116, tag not shown): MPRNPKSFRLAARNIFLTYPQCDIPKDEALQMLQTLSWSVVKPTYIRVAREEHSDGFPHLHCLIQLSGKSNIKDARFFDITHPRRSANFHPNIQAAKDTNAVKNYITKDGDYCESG
On the procedure:
as §1

For test [4], the system named is T4, Rep nickase domain of chickpea chlorotic dwarf virus.
T4 sequence (residues 1-124, tag not shown): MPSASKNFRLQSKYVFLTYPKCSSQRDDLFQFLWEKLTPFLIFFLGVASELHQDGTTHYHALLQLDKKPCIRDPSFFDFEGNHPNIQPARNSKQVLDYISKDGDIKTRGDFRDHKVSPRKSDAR
On the procedure: as §1
The test system of test [5] is T5, Rep nickase domain of faba bean necrotic yellows virus.
T5 sequence (residues 1-98, tag not shown): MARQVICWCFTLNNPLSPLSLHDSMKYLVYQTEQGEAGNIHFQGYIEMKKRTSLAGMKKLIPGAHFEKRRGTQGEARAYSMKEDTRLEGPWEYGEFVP
On the procedure:
as §1

Test [6] has as its system T6, Rep nickase domain of maize striate mosaic virus.
T6 sequence (residues 1-117, tag not shown): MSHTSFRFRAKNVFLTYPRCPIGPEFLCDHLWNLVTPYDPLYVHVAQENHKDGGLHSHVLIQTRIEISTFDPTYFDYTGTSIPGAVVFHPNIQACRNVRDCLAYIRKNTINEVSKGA
On the procedure:
as §1

Test [7] deals with T7, Rep nickase domain of porcine circovirus 2.
T7 sequence (residues 2-116, tag not shown): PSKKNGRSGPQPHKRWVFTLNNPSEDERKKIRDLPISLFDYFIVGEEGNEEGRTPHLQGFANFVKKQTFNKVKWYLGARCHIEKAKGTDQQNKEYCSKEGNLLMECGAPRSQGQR
On the procedure: as §1
Test [8] deals with T8, Rep nickase domain of tomato golden mosaic virus.
T8 sequence (residues 1-124, tag not shown): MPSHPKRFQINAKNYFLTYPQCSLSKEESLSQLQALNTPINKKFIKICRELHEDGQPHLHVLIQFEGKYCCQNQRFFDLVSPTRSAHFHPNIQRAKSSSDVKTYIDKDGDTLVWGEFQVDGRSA
The procedure:
as §1

The test system of test [9] is T9, Rep nickase domain of tomato yellow leaf curl virus.
T9 sequence (residues 1-136, tag not shown): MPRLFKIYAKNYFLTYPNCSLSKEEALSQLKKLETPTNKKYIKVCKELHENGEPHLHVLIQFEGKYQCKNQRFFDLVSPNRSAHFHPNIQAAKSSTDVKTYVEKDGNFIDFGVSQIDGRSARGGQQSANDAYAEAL
On the procedure: as §1
In test [10] the test system is T10, Rep nickase domain of wheat dwarf virus.
T10 sequence (residues 1-137, tag not shown): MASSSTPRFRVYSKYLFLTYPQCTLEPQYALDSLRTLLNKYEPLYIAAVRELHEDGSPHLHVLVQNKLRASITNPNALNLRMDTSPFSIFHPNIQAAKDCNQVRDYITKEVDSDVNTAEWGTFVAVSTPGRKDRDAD
The procedure:
as §1

The other results are listed elsewhere or left out. Each Rep nickase domain was tested in vitro on the same pool of single strands (3 µM enzyme, 1 h, 37 °C); shown is the middle of each 90-letter strand. Numbers give uncut DNA relative to the enzyme-free pool, as log2; the lower, the more was cut; hits are not called. Counts are relative to all reads; values above 0 arise when much of the pool is cut.

Data on four sequences can be found in the supplement of paper PMC7826260.

As for TAACATT, the “uncleaved DNA left (log2)” value in [1] was -0.0458; in test [2] it was 0.0621; in test [3], -3.62; in test [4], -2.92; in test [5], -0.18; in test [6], -0.911. For the same sequence, the “uncleaved DNA left (log2)” value in test [7] was -1.11; in test [8] it was -1.69; in [9], -0.0041; in test [10], -2.91.

With GTCCGTA, the “uncleaved DNA left (log2)” value was 0.0295 in [1]; 0.0231 in test [2]; 0.153 in test [3]; 0.541 in [4]; -0.0909 in test [5]; 1.26 in test [6]. The “uncleaved DNA left (log2)” value in [7] was -0.138; in test [8] it was -0.098; in test [9], -0.0342; in test [10] it was 0.00993.

As for AACAAGG, the “uncleaved DNA left (log2)” value in test [1] was -0.00808; in [2], -0.0141; in test [3], 0.181; in test [4] it was 0.86; in test [5], 0.0029; in test [6] it was -0.0847. Moreover, the “uncleaved DNA left (log2)” value was 0.222 in test [7], 0.0745 in test [8], -0.0841 in test [9] and 0.0564 in test [10].

For the sequence TTAATCA, the “uncleaved DNA left (log2)” value in test [1] worked out at 0.0679; in test [2] it was 0.197; in test [3], 0.501; in test [4], 0.179; in test [5], 0.0795; in [6] it was 0.759. For the same sequence, the “uncleaved DNA left (log2)” value in test [7] came to 0.153; in [8], 0.1; in [9], 0.351; in [10], 0.294.
